Reference: paper PMC10201506 (Signal Transduction and Targeted Therapy, 2023)

Molecular target: SARS-CoV-2 3CL^pro (Severe acute respiratory syndrome coronavirus 2, UniProt P0DTC1)
Test: Rapid dilution assay (inhibition reversibility)
Type: biochemical
Conditions: 10 μM compound incubated with 2 μM enzyme for 20 min

Q: For O=C(c1cc(=O)[nH]c2ccccc12)N1CCN(c2ccc(Cl)c(Cl)c2)CC1CN1CCOCC1 (stereo not shown) [JZD-07, 4-(4-(3,4-Dichlorophenyl)-2-(morpholinomethyl)piperazine-1-carbonyl)quinolin-2(1H)-one], which “recovery of 3CLpro activity after 100-fold dilution” value is on record?
A: more than 70%
